# Measurements taken from a collection of fitness landscapes (doi:10.1126/science.1257360).
# The other results are listed elsewhere or left out.
# B1: PhoQ; a variant is named by its letters at X, in order, P23837 (parent)
# chain: MKKLLRLFFPLSLRVRFLLATAAVVLVLSLAYGMVALIGYSVSFDKTTFRLLRGESNLFYTLAKWENNKLHVELPENIDKQSPTMTLIYDENGQLLWAQRDVPWLMKMIQPDWLKSNGFHEIEADVNDTSLLLSGDHSIQQQLQEVREDDDDAEMTHSVAVNVYPATSRMPKLTIVVVDTIPVELKSSYMVWSWFIYVLSANLLLVIPLLWVAAWWSLRPIEALAKEVRELEEHNRELLNPATTRELTSLVRNLNRLLKSERERYDKYRTTLTDLTHSLKTPLXXLQXXLRSLRSEKMSVSDAEPVMLEQISRISQQIGYYLHRASMRGGTLLSRELHPVAPLLDNLTSALNKVYQRKGVNISLDISPEISFVGEQNDFVEVMGNVLDNACKYCLEFVEISARQTDEHLYIVVEDDGPGIPLSKREVIFDRGQRVDTLRPGQGVGLAVAREITEQYEGKIVAGESMLGGARMEVIFGRQHSAPKDE
# Variants of: B1
# Assay: enrichment ratio after two sorts for PhoP signalling (ratio (wild type AVST 3.29)); higher = more functional
# Conditions: with PhoP (E. coli)
row,Variant,enrichment ratio
1,SCPK,≤ 0.25
2,YWIP,≤ 0.25
3,SNPQ,≤ 0.25
4,AYSP,≤ 0.25
5,KYMS,≤ 0.25
6,APGP,≤ 0.25
7,WHVV,≤ 0.25
8,DGMT,≤ 0.25
9,EFWQ,≤ 0.25
10,DHSP,≤ 0.25
11,EMKE,≤ 0.25
12,VMTQ,≤ 0.25
13,RGEY,≤ 0.25
14,WVPV,≤ 0.25
15,FMQV,≤ 0.25
16,AERL,≤ 0.25
17,GFLC,0.939
18,PHLA,≤ 0.25
19,FCRI,≤ 0.25
20,EHPS,≤ 0.25
21,EKFQ,≤ 0.25
22,MMAF,13
23,SQVG,9.71
24,NVHH,≤ 0.25

row,Variant,enrichment ratio
1,PRVD,≤ 0.25
2,DYYT,≤ 0.25
3,RKSC,≤ 0.25
4,RDPG,≤ 0.25
5,PGCI,≤ 0.25
6,SAML,16.5
7,IERW,≤ 0.25
8,RWVW,≤ 0.25
9,HHWG,≤ 0.25
10,TKMS,3.1
11,DIHK,≤ 0.25
12,SVQQ,≤ 0.25
13,KFDS,≤ 0.25
14,KHDG,≤ 0.25
15,SYEA,≤ 0.25
16,FCFG,0.349
17,EPMN,≤ 0.25
18,GLRM,≤ 0.25
19,KHHS,≤ 0.25
20,MNQG,≤ 0.25
21,ISEL,≤ 0.25
22,GNTI,4.8
23,NSLI,4.88
24,RVMC,≤ 0.25

row,Variant,enrichment ratio
1,TQTA,5.01
2,KNGY,≤ 0.25
3,QERP,≤ 0.25
4,HYRI,≤ 0.25
5,VIPK,≤ 0.25
6,YGYP,≤ 0.25
7,SDNH,≤ 0.25
8,EEGD,≤ 0.25
9,LVRL,≤ 0.25
10,TLEV,1.08
11,HHGW,≤ 0.25
12,QMCY,9.66
13,VTQG,≤ 0.25
14,PYEY,≤ 0.25
15,GIYT,≤ 0.25
16,CSGS,≤ 0.25
17,QNYI,≤ 0.25
18,RESN,≤ 0.25
19,FHHQ,≤ 0.25
20,IQEM,≤ 0.25
21,RKAQ,≤ 0.25
22,REFN,≤ 0.25
23,LAAW,≤ 0.25
24,GMMD,≤ 0.25

row,Variant,enrichment ratio
1,FKRV,≤ 0.25
2,SSPS,≤ 0.25
3,FYVK,≤ 0.25
4,RLWT,≤ 0.25
5,MNGM,7.79
6,LYIY,≤ 0.25
7,DIAG,≤ 0.25
8,IPWP,≤ 0.25
9,MDKS,≤ 0.25
10,ARSM,4.49
11,VTGQ,≤ 0.25
12,YEKD,≤ 0.25
13,DVPC,≤ 0.25
14,SLFL,≤ 0.25
15,ANEN,≤ 0.25
16,DMNH,≤ 0.25
17,YMGA,≤ 0.25
18,YKTW,≤ 0.25
19,FPGG,≤ 0.25
20,PTGD,≤ 0.25
21,WSIS,≤ 0.25
22,IRDK,≤ 0.25
23,DPAG,≤ 0.25
24,SMFL,≤ 0.25

row,Variant,enrichment ratio
1,SAHW,≤ 0.25
2,RADF,≤ 0.25
3,SKAL,12.2
4,EHLG,≤ 0.25
5,LQCM,≤ 0.25
6,HCCW,≤ 0.25
7,PSKM,≤ 0.25
8,KIMR,≤ 0.25
9,GRTK,≤ 0.25
10,HYIN,≤ 0.25
11,YRIQ,≤ 0.25
12,LVAS,≤ 0.25
13,HPTE,≤ 0.25
14,PINN,≤ 0.25
15,DDTH,≤ 0.25
16,YLCK,≤ 0.25
17,NQIT,≤ 0.25
18,YEIK,≤ 0.25
19,WPKC,≤ 0.25
20,SYPK,≤ 0.25
21,WDGL,≤ 0.25
22,FSHL,≤ 0.25
23,FTDP,≤ 0.25
24,TTTK,16.7

row,Variant,enrichment ratio
1,CTGL,≤ 0.25
2,GPSG,≤ 0.25
3,KAHW,≤ 0.25
4,RVQT,≤ 0.25
5,NKKS,≤ 0.25
6,HLAI,≤ 0.25
7,TFNW,≤ 0.25
8,FAEE,≤ 0.25
9,DNSH,≤ 0.25
10,GPAK,≤ 0.25
11,LIEW,≤ 0.25
12,LWSF,≤ 0.25
13,NCLP,≤ 0.25
14,AHPR,≤ 0.25
15,HKRR,≤ 0.25
16,RGQS,≤ 0.25
17,RTDI,≤ 0.25
18,STAS,7.84
19,NSAF,≤ 0.25
20,SWGC,≤ 0.25
21,WNWM,≤ 0.25
22,TGCL,22.4
23,NSKG,≤ 0.25
24,DCKA,≤ 0.25

row,Variant,enrichment ratio
1,QQES,≤ 0.25
2,SYQQ,≤ 0.25
3,MICI,0.945
4,LRTY,≤ 0.25
5,SNIA,≤ 0.25
6,MGGQ,2.83
7,IAGR,≤ 0.25
8,DDEW,≤ 0.25
9,MRFF,≤ 0.25
10,YDAK,≤ 0.25
11,AKCT,9.01
12,MARI,≤ 0.25
13,HSMV,17
14,GLRF,≤ 0.25
15,MYMN,≤ 0.25
16,SDQH,≤ 0.25
17,CSGV,5.64
18,PPFV,≤ 0.25
19,IMIW,≤ 0.25
20,MVCY,≤ 0.25
21,SQVP,≤ 0.25
22,LCPD,≤ 0.25
23,QYRP,≤ 0.25
24,VQKI,≤ 0.25

row,Variant,enrichment ratio
1,GTNH,≤ 0.25
2,MLGN,≤ 0.25
3,ACNH,≤ 0.25
4,IHCY,≤ 0.25
5,IAEW,≤ 0.25
6,NRHM,≤ 0.25
7,SWKW,≤ 0.25
8,FFDD,≤ 0.25
9,EQDP,≤ 0.25
10,RVHG,≤ 0.25
11,QIPL,≤ 0.25
12,MCSG,4.26
13,TACP,≤ 0.25
14,ADAD,≤ 0.25
15,GSSV,6.59
16,KVFF,≤ 0.25
17,FGTQ,≤ 0.25
18,MVQK,≤ 0.25
19,TELH,11.2
20,DYGL,≤ 0.25
21,SPLH,≤ 0.25
22,PKES,≤ 0.25
23,GWAK,≤ 0.25
24,PDLD,≤ 0.25

row,Variant,enrichment ratio
1,QIIL,2.31
2,HTTK,≤ 0.25
3,KTPI,≤ 0.25
4,WFIC,≤ 0.25
5,ENSP,≤ 0.25
6,RNRV,≤ 0.25
7,FVIQ,≤ 0.25
8,FLPM,≤ 0.25
9,ILKD,≤ 0.25
10,MSGP,≤ 0.25
11,APTN,≤ 0.25
12,YQWN,≤ 0.25
13,RPTP,≤ 0.25
14,MLVR,≤ 0.25
15,LPTG,≤ 0.25
16,VYEW,≤ 0.25
17,CQRF,≤ 0.25
18,NDWA,≤ 0.25
19,VMFD,≤ 0.25
20,YANL,≤ 0.25
21,NVCF,≤ 0.25
22,HRND,≤ 0.25
23,VAMK,≤ 0.25
24,EARE,≤ 0.25

row,Variant,enrichment ratio
1,RMFN,≤ 0.25
2,FRNQ,≤ 0.25
3,YPTK,≤ 0.25
4,YPDG,≤ 0.25
5,PYQM,≤ 0.25
6,SWTD,≤ 0.25
7,LRDR,≤ 0.25
8,EDRV,≤ 0.25
9,LRRW,≤ 0.25
10,PRNE,≤ 0.25
11,WFSY,≤ 0.25
12,IRHS,≤ 0.25
13,IAII,≤ 0.25
14,LDCI,0.333
15,QSWG,18
16,DCLM,≤ 0.25
17,FGGF,≤ 0.25
18,INTE,≤ 0.25
19,CSCR,≤ 0.25
20,EVSI,≤ 0.25
21,WAAW,≤ 0.25
22,LLTI,≤ 0.25
23,PHHW,≤ 0.25
24,PQRK,≤ 0.25

row,Variant,enrichment ratio
1,GRKY,≤ 0.25
2,RTSN,≤ 0.25
3,FHYI,≤ 0.25
4,KNLD,≤ 0.25
5,TPKI,≤ 0.25
6,PADQ,≤ 0.25
7,LMNR,≤ 0.25
8,PMYN,≤ 0.25
9,KKKC,≤ 0.25
10,PVPA,≤ 0.25
11,MGSV,15.6
12,WNVF,≤ 0.25
13,LMML,≤ 0.25
14,HGVQ,≤ 0.25
15,YFCY,≤ 0.25
16,VPDA,≤ 0.25
17,LALV,8.3
18,GVQV,≤ 0.25
19,SSCD,6.3
20,KSDV,≤ 0.25
21,NMLH,≤ 0.25
22,DFQY,≤ 0.25
23,ESKY,≤ 0.25
24,MTIR,≤ 0.25

row,Variant,enrichment ratio
1,VVTL,0.446
2,MYKT,≤ 0.25
3,MDRD,≤ 0.25
4,IRSV,≤ 0.25
5,RTTE,≤ 0.25
6,WDHR,≤ 0.25
7,GRSS,≤ 0.25
8,WATT,≤ 0.25
9,PCIF,≤ 0.25
10,QVHF,0.315
11,RICY,≤ 0.25
12,SSQL,9.73
13,HHNC,≤ 0.25
14,WYYF,≤ 0.25
15,IFQR,≤ 0.25
16,YIYA,≤ 0.25
17,MHQL,≤ 0.25
18,QGMN,≤ 0.25
19,SIKS,≤ 0.25
20,EMCM,≤ 0.25
21,RMYH,≤ 0.25
22,RHHE,≤ 0.25
23,KSWV,≤ 0.25
24,IFPI,≤ 0.25

row,Variant,enrichment ratio
1,WQFA,≤ 0.25
2,HFCF,≤ 0.25
3,RPMM,≤ 0.25
4,DNNW,≤ 0.25
5,FIAM,≤ 0.25
6,VEYG,≤ 0.25
7,QVSC,1.05
8,MYAP,≤ 0.25
9,FKPH,≤ 0.25
10,ECSM,≤ 0.25
11,DHPI,≤ 0.25
12,NDEC,≤ 0.25
13,YHFQ,≤ 0.25
14,GHMP,≤ 0.25
15,PGWA,≤ 0.25
16,AGVG,1.3
17,EAPK,≤ 0.25
18,ETFY,≤ 0.25
